# Measurements: PubChem BioAssay AID1508624 (National Center for Advancing Translational Sciences (NCATS), 2021)
# Screen size: about 48,000 compounds; about 120 (0.25%) were called active. Inconclusive results (about 4%) are left out. Calls come from the whole dose curve; as a rule, active = well fitted activation curve with a large enough effect; inconclusive = small, poorly fitted or top-dose-only effect, or another doubt; inactive = no such curve, though single readings can be large or run the other way. The list shows a part of the results.
# Assay: Primary qHTS for Identification of Small Molecule Activators of Huntingtin-Antisense Promoter Activity; note: nearly all actives have a fitted effect of over 55% in size
# Conditions: HEK293 HTT-AS promoter firefly luciferase reporter (activity 0% = vehicle and -100% = no light), 24 h; series mostly up to 57.5 µM; activity change, positive = activation: at the top concentration
# Procedure, shortened: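 Firefly luciferase signal from promoter-reporter HEK293 cells was scaled between vehicle (0%) and zero RLU (-100%). Compounds were tested at final concentrations of up to 57.5 uM over 24 h at 37 degrees C. PTC124 at 50 uM final served as control inhibitor.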
# Potency is the fitted concentration of half-maximal effect.
Structure (SMILES),"activity change, positive = activation",Potency
COc1ccc(OC)c(C2N=C(N)Nc3nc4ccccc4n32)c1 (stereo unspecified),inactive: -14.6%,
COc1ccc(NC(=O)Cn2c(=O)n(Cc3nc(C)no3)c(=O)c3cc4c(cc32)OCO4)cc1OC,inactive: -11%,
Cc1cccc(C)c1-n1ncc(C(=O)NCCN2CCOCC2)c1C1CCN(C(=O)OC(C)(C)C)CC1,inactive: -1.55%,
O=C(CC(c1cccs1)N1Cc2ccccc2C1=O)Nc1ccc(F)c(Cl)c1 (stereo unspecified),inactive: -31.6%,
CC(=O)Nc1cc(C(=O)NCc2ccc(C)cc2)ccc1Sc1ccc(C)cc1,inactive: -30.7%,
C=CCC(CC=C)(CNC(=O)C(=O)Nc1cccc(C(F)(F)F)c1)c1ccccc1,inactive: -18.7%,
CCc1ccc(-c2nc(CN3CCCC(C(=O)N4CCN(c5cc(Cl)ccc5C)CC4)C3)c(C)o2)cc1 (stereo unspecified),inactive: -68.8%,
CC(CNC(=O)Cn1ccc2cc(S(=O)(=O)N3CCCCCC3)ccc21)c1ccccc1 (stereo unspecified),inactive: -21.4%,
COc1ccc(Cl)cc1NC(=O)CN(C)S(=O)(=O)c1ccc2c(c1)CCCN2C(C)=O,inactive: -10.5%,
COc1ccc(-c2noc(-c3cccnc3NCc3ccco3)n2)cc1,,active: 11.2 µM
Cc1cccc(-n2c(=O)c3c(c4cc(C)ccc4n3C)n(CC(=O)NCCC3=CCCCC3)c2=O)c1,inactive: -8.84%,
CCC1CN(C(=O)N2CCC(C(=O)NCCN(CC)CC)CC2)c2ccccc2O1 (stereo unspecified),inactive: -7.19%,
CCOC(=O)CSc1nc2ccccc2c(=O)n1CCc1ccc(OC)c(OC)c1,inactive: -54.7%,
COc1ccc(-c2onc(C)c2C)cc1S(=O)(=O)NCC1CCN(Cc2ccccc2F)CC1,inactive: -17.9%,
Cc1ccc(Oc2c(C(F)(F)F)oc3cc(OCC(=O)NC4CCCCC4)ccc3c2=O)cc1,inactive: 2.81%,
CCCN1C(=O)C(O)(CC(=O)c2ccc(CC)cc2)c2ccccc21 (stereo unspecified),inactive: -19.1%,
CCc1cccc(C)c1NC(=O)CSc1nc(C)cc(C)c1C(=O)Nc1ccccc1,inactive: -19.5%,
COc1ccc(NC(=O)C(c2ccc(C)cc2)N(C)C(=O)Cc2cccs2)cc1 (stereo unspecified),inactive: 4.69%,
Cc1c(Cl)cccc1NC(=O)C(C)n1c(=O)cc(-c2ccccc2)c2c(C)nn(C)c21 (stereo unspecified),inactive: -1.81%,
CCc1ccc(NC(=O)c2sc3nc(C)c(Cl)c(C)c3c2N)cc1,,active: 2.51 µM
O=C(Cn1c(-c2cccs2)cc2cc(Cl)ccc21)N1CCN(c2ccccc2)CC1,inactive: -9.9%,
COc1ccc(-c2cccc(NS(=O)(=O)c3cc(C)c(OC)c(C)c3C)c2)nn1,inactive: -53.4%,
CCOc1ccccc1C(=O)N1CC(=O)Nc2ccc(Cl)cc2C1c1ccccc1 (stereo unspecified),inactive: -30.4%,

Structure (SMILES),"activity change, positive = activation",Potency
Cc1ccc(NC(=O)C2CCCN2S(=O)(=O)c2ccc3c(c2)CCCC(=O)N3)cc1C (stereo unspecified),inactive: -34.1%,
O=C(Cn1c(=O)c2cc(Cl)ccc2n2nncc12)Nc1ccccc1,inactive: -11.2%,
Cc1ccc(NC(=O)Cn2cc(S(=O)(=O)c3ccc(F)cc3)c(=O)c3cc4c(cc32)OCO4)cc1,inactive: -19.6%,
CCOc1ccccc1C1CC(=O)NC(C)=C1C(=O)OC1CCCCCC1 (stereo unspecified),inactive: -44.7%,
Cc1cccc(Oc2nc3ccccn3c(=O)c2/C=C(\C#N)c2nc3ccccc3s2)c1C,inactive: 2.49%,
COc1ccc(-n2c3c(c(=O)[nH]c2=O)C(NC(C)=O)(C(F)(F)F)C(=O)N3)cc1 (stereo unspecified),inactive: 13.4%,
COCCNC(=O)Cn1c(=O)n(Cc2ccc(C(=O)NCCc3ccc(OC)c(OC)c3)cc2)c(=O)c2ccccc21,inactive: -22.3%,
COc1cc(Cl)c(C)cc1NC(=O)CCCN1C(=O)C(c2ccccc2)Oc2cccnc21 (stereo unspecified),inactive: -36.8%,
COc1ccc(NC(=O)C2CCCN(S(=O)(=O)c3cn(C)cn3)C2)cc1Cl (stereo unspecified),inactive: -14.6%,
COc1ccc(CCNC(=O)c2ccc3c(c2)CCN3S(=O)(=O)c2ccc(Cl)cc2)cc1,inactive: -33%,
COc1ccc(C(=O)N(Cc2sccc2C)C2CCS(=O)(=O)C2)cc1Cl (stereo unspecified),inactive: -10.7%,
Cc1cc(C)c(S(=O)(=O)Nc2cc(-c3cn4ccccc4n3)ccc2C)cc1C,inactive: -17.4%,
CCN1CCN(C(=O)c2ccc3c(c2)N(Cc2ccc(Cl)cc2)C(=O)c2ccccc2S3(=O)=O)CC1,inactive: -10.6%,
Cc1ccc(C(=O)c2sc(Nc3ccccc3F)c(S(=O)(=O)c3ccccc3)c2N)c(C)c1,inactive: -31.2%,
O=C(NCc1ccc2c(c1)OCO2)c1ccc2c(c1)N(Cc1cccc(Cl)c1)C(=O)c1ccccc1S2,inactive: -14.4%,
Cc1cccc(N2CCN(C(=O)C3CCN(S(=O)(=O)c4c(C)noc4/C=C/c4ccccc4F)CC3)CC2)c1C,inactive: 4.91%,
O=C(Cn1ncc2c([nH]c3ccccc32)c1=O)Nc1cc(F)ccc1F,inactive: -17.5%,
O=C(Nc1nnc(S(=O)(=O)N2CCCCCC2)s1)c1ccc(Br)cc1,inactive: -14.5%,
COc1c(Cl)cc(C(=O)Nc2cccc(-c3nc4ccccc4[nH]3)c2)cc1Cl,inactive: -36.1%,
Cc1cc(C)c(Cn2c3ccccc3c3cnn(CC(=O)NCCc4ccccc4)c(=O)c32)c(C)c1,inactive: -15.7%,
COc1ccc(Cl)cc1NC(=O)Cn1nnc2sc3c(c2c1=O)CCC(C(C)(C)C)C3 (stereo unspecified),inactive: -6.62%,
CCc1cccc(C)c1NS(=O)(=O)c1c(C(=O)N2CCCCCC2)c(C)n(C)c1C,inactive: -12.2%,
Cc1ccc(Cl)cc1N1CCN(C(=O)CN2C(=O)COc3ccc(S(=O)(=O)N4CCOCC4)cc32)CC1,inactive: -18.4%,

Structure (SMILES),"activity change, positive = activation",Potency
O=C(NCc1ccc(F)cc1)c1ccc(CSc2nc3ccncc3n2Cc2ccc(F)cc2)cc1,inactive: -20.5%,
CCOC(=O)c1c(Nc2cccc(O)c2)nnc(-c2ccccc2)c1-c1ccccc1,inactive: -21.5%,
COc1cc(OC)c(NC(=O)c2c(C)nn(-c3ccc(C)cc3)c2-n2cccc2)cc1Cl,inactive: -8.42%,
COc1ccc(C(=O)NCCn2cc(SCC(=O)Nc3ccccc3)c3ccccc32)cc1OC,inactive: -36%,
COc1ccc(OC)c(NC(=O)c2ccc(-c3nc(CSc4ccccc4)c(C)o3)cc2)c1,inactive: -4.94%,
CC(C)(C)C(=O)Cn1c(=O)n(CCCCCC(=O)NCc2ccc3c(c2)OCO3)c(=O)c2sccc21,inactive: -27.4%,
CCCCn1cc(S(=O)(=O)c2ccc(CC)cc2)c(=O)c2cc(F)c(N3CCCC(C)C3)cc21 (stereo unspecified),inactive: -11.1%,
COc1ccccc1CCNC(=O)c1ccc(NC(=O)N2CC(C)Sc3ccccc32)cc1 (stereo unspecified),inactive: -27.3%,
Cc1ccc(C(=O)CSc2nc3cc(C(=O)NC4CCCC4)ccc3c(=O)n2CC2CCCO2)cc1 (stereo unspecified),inactive: 3.48%,
CSc1cccc(NS(=O)(=O)c2ccc3[nH]cc(C(=O)N4CCCC4)c(=O)c3c2)c1,inactive: -3.64%,
Cc1cc(C)c(Cn2c3ccccc3c3cnn(CC(=O)NC4CCCCCC4)c(=O)c32)c(C)c1,inactive: -14.3%,
COc1ccc(Cn2cc(C(=O)c3ccc(Cl)cc3)c(=O)c3cc4c(cc32)OCO4)cc1,inactive: -16.2%,
CC(C)(Sc1cc(C(C)(C)C)c(O)c(C(C)(C)C)c1)Sc1cc(C(C)(C)C)c(O)c(C(C)(C)C)c1,inactive,
CCc1ccc(Nc2nn3c(=O)c4cc5c(cc4nc3s2)OCO5)cc1,inactive: -12.2%,
Cc1ccc(-n2nc3c(N4CCC(C(=O)N5CCC(C)CC5)CC4)nnc(C)c3c2C)cc1,inactive: -16.3%,
O=C(Nc1cccc(Cl)c1Cl)c1cc(S(=O)(=O)N2CCC3(CC2)OCCO3)ccc1F,inactive: -15.9%,
COc1cc(OC)cc(C(=O)Nc2ccc(S(=O)(=O)N3CCCCC3c3cccnc3)cc2)c1 (stereo unspecified),inactive: -46.4%,
Cc1cc(C)cc(NC(=O)C2CCCN2S(=O)(=O)c2ccc3c(c2)C(C)(C)C(=O)N3C)c1 (stereo unspecified),inactive: -28.3%,
CCOC(=O)c1ccc(NC(=O)c2ccc3c(c2)c(C)c(C)n3Cc2ccc(F)cc2)cc1,inactive: -23.8%,
CCOC(=O)C1(C)C=C(Nc2ccc(OC)cc2)C(=O)N1c1ccccc1 (stereo unspecified),inactive: 2.06%,
COc1ccccc1NC(=O)c1oc2ccccc2c1NC(=O)c1c(F)cccc1F,inactive: 0%,
CCOc1ccccc1N1CC(c2nc3ccccc3n2CCOc2ccc(OC)cc2)CC1=O (stereo unspecified),inactive: -47.2%,
CC(=O)N(Cc1cccnc1)c1nc2c(C)cc(C)cc2s1,inactive: -13.7%,

Structure (SMILES),"activity change, positive = activation",Potency
COc1ccc(CNC(=O)c2cc(-c3cccs3)nc3ccccc23)c(OC)c1,inactive: -1.84%,
CCOC(=O)c1sc(NC(=O)c2nc3ncccn3n2)c(C(=O)OC(C)C)c1C,inactive: -2.8%,
CC1CCc2c(sc3nnn(Cc4ccccc4)c(=O)c23)C1 (stereo unspecified),inactive: -11.1%,
Cc1ccc(NS(=O)(=O)c2ccc3[nH]c4c(c3c2)CCCC4)c(C)c1,inactive: -28.7%,
CC(C)Cn1c(=O)c2sccc2n2c(CCCC(=O)NCC(C)c3ccccc3)nnc12 (stereo unspecified),inactive: -15.3%,
O=C(NCCN1CCN(c2ccccc2F)CC1)C1COc2ccccc2C1 (stereo unspecified),inactive: -15.9%,
O=C(CSc1oc(-c2ccccc2)nc1S(=O)(=O)c1ccc(Br)cc1)NC1CCCCC1,inactive: -10%,
COc1ccc(CNC(=O)c2ccc3c(c2)N(Cc2ccccc2F)C(=O)c2ccccc2S3=O)cc1 (stereo unspecified),inactive: -15.7%,
CC(=O)Nc1nonc1-c1nnc(SCc2ccccc2C)n1C,inactive: -16.8%,
COc1ccc(OC)c(NC(=O)Cc2c(C(=O)O)[nH]c3ccc(Cl)cc23)c1,inactive: -10%,
CCc1ccccc1NC(=O)Cc1ccc(-n2c(C)nc3cccnc32)cc1,inactive: -15.8%,
COc1cccc(-c2ccc3c(N)c(C(=O)Nc4ccc(Cl)cc4F)sc3n2)c1,inactive: -20.5%,
Cc1ccc(C2=Nc3ccccc3N(CC(=O)NCc3ccc(Cl)cc3)C(=O)C2)cc1C,inactive: 11.3%,
O=C(c1ccc(Cl)cc1)N1CCCCC1CCN1CCOCC1 (stereo unspecified),inactive: -15%,
Cc1ccc(C)c(N2CCN(C(=O)c3cc4c(=O)n(Cc5cccnc5)ccc4nc3C)CC2)c1,inactive: -11.6%,
Cc1cccc(CSc2nc3cccnc3n2Cc2ccc(C(=O)NCc3cccs3)cc2)c1,inactive: -26.1%,
Cc1cc(C)n(-c2nc3cc(Cl)c(Cl)cc3nc2Nc2ccc(F)cc2C)n1,inactive: 9.33%,
Cc1cccc(C(=O)Nc2c(-c3ccc(F)cc3)nc3ccccn23)c1,inactive: -19.5%,
CCn1c(=O)c2cc(C(=O)Nc3cc(C)c(Cl)cc3OC)sc2c2ccccc21,inactive: -5.02%,
Cc1ccc(NC(=O)c2cc3c(Cl)nc4ccc(C)cc4c3s2)c(Cl)c1,inactive: -8.43%,
COc1ccc(NC(=O)CSc2nc3ccccc3n2CC(=O)N2CCCC(C)C2)cc1 (stereo unspecified),inactive: 4.93%,
O=C(CCCn1c(=O)c2cccn2c2ccc(F)cc21)NCCc1ccccc1,inactive: -11.6%,
